From patent US20050282943A1, “Solubilized additive composition comprising acidic and basic constituents” (INVISTA NORTH AMERICA S.A R.L., priority 2004, published 2005)

Experiments:
[1] = Dissolution of water insoluble additive in demineralized water on adding a counterpart salt forming species (visual); conditions: for behaviour of the additive in demineralized water alone: before any counterpart salt forming species is added; for Comments: 0.01 mol Nylostab SEED in 24 g demineralized water, 22° C.
[2] = Dissolution of additive salt in water / caprolactam solvent medium (visual); assay type: physicochemical; conditions: Nylostab SEED + isophthalic acid; solution also 20 w % Caprolactam (Example 4)
Procedure: Caprolactam (4.43 g) was dissolved in 11.6 g demineralized water. […] The solution was about 20 w % Nylostab SEED and 20 w % Caprolactam.

[3] = 0.01 mol additive in demineralized water, adipic acid 0.01 mol in total (Chimassorb 944: 0.015 mol)

Q: What does the source list for `CN1C(C)(C)CC(OC(=O)CCCCCCCCC(=O)OC2CC(C)(C)N(C)C(C)(C)C2)CC1(C)C` [Tinuvin 765, Bis(1,2,2,6,6-pentamethyl-4-piperidinyl) sebacate]?
A: dissolution (observation) [1, 3]: gradually became a single phase system; additive content of final solution ([1]; Tinuvin 765 + adipic acid (1:1 mol) in 7.32 g demineralized water (Example 7)): about 37 w %; behaviour of the additive in demineralized water alone [1]: a two phase liquid-liquid system formed

Q: Which results are given for `CCCCC(Cc1cc(C(C)(C)C)c(O)c(C(C)(C)C)c1)(C(=O)OC1CC(C)(C)N(C)C(C)(C)C1)C(=O)OC1CC(C)(C)N(C)C(C)(C)C1` [Tinuvin 144]?
A: dissolution (observation) [1, 3]: wetted out but did not dissolve; behaviour of the additive in demineralized water alone [1]: did not wet out and floated on the surface of the water; dissolution (observation) ([1]; further addition of adipic acid and heating to the boil (Comparative Example 6)): failed to dissolve the Tinuvin 144

Q: For `CC(C)(C)c1cc(CCC(=O)O)cc(C(C)(C)C)c1O` [Irganox 1310, 3-(3,5-di-t-butyl-4-hydroxyphenyl)propionic acid], which “dissolution (observation)” value ([1]; Example 8 solution after a further 2 g of demineralized water) is on record?
A: The value was “formation of a white precipitate”.

Q: What does the source list for `CC1(C)CC(NC(=O)c2cccc(C(=O)NC3CC(C)(C)NC(C)(C)C3)c2)CC(C)(C)N1` [Nylostab SEED, N,N′-bis(2,2,6,6-tetramethyl-4-piperidinyl)-1,3-benzenedicarboxamide]?
A: additive content of solution [2]: about 20 w %; Comments ([1]; total adipic acid added 0/0 grams/mols): White suspension; Comments ([1]; total adipic acid added 0.45/0.003 grams/mols): White suspension but getting; Comments ([1]; total adipic acid added 0.60/0.004 grams/mols): White suspension but getting; Comments ([1]; total adipic acid added 0.75/0.005 grams/mols): White suspension but getting; Comments ([1]; total adipic acid added 0.90/0.006 grams/mols): White suspension but getting; Comments ([1]; total adipic acid added 1.05/0.007 grams/mols): White suspension but getting; Comments ([1]; total adipic acid added 1.20/0.008 grams/mols): White suspension but getting; Comments ([1]; total adipic acid added 1.35/0.009 grams/mols): Translucent, almost all solids; Comments ([1]; total adipic acid added 1.50/0.010 grams/mols): Clear solution.; dissolution (observation) ([1]; Nylostab SEED 0.001 mol + 35% hydrochloric acid 0.002 mol in 2.5 g demineralized water (Example 6)): after a few minutes a white precipitate formed; dissolution (observation) ([1]; Nylostab SEED 0.001 mol + Irganox 1310 0.002 mol in 2.5 g demineralized water (Comparative Example 2)): after a few minutes a white precipitate formed; dissolution (observation) ([1]; Nylostab SEED 0.001 mol + sulphuric acid 0.001 mol in 2.5 g demineralized water (Comparative Example 3)): after a few minutes a white precipitate formed; dissolution (observation) ([1]; Nylostab SEED 0.44 g + 3,3-thiodipropionic acid 0.18 g in 2.5 g demineralized water (Example 5)): rapidly dissolved; additive content of final solution ([1]; Nylostab SEED + 3,3-thiodipropionic acid in demineralized water (Example 5)): about 14 w %; dissolution (observation) ([1]; Nylostab SEED + Irganox 1310, after an additional 2.5 g demineralized water (Comparative Example 2)): failed to dissolve the solid; additive content of final solution ([1]; Nylostab SEED + hydrochloric acid in 5 g demineralized water (Example 6)): about 8 w %; dissolution (observation) ([1]; Nylostab SEED + hydrochloric acid, after an additional 2.5 g demineralized water (Example 6)): dissolve the solid; dissolution (observation) ([1]; Nylostab SEED + isophthalic acid (1:1 mol) in demineralized water (Comparative Example 1)): a few minutes later a white suspension formed; dissolution (observation) ([1]; Nylostab SEED + sulphuric acid, after an additional 2.5 g demineralized water (Comparative Example 3)): failed to dissolve the solid; additive content of final solution ([1]; Nylostab SEED + terephthalic acid (1:1 mol) in demineralized water (Example 3)): about 15 w %

Q: Which results are given for `CC1(C)CC(OC(=O)CCCCCCCCC(=O)OC2CC(C)(C)NC(C)(C)C2)CC(C)(C)N1` [Tinuvin 770]?
A: dissolution (observation) [1, 3]: still did not dissolve; dissolution (observation) ([1]; 0.01 mol additive in demineralized water, first addition of adipic acid 0.005 mol): thickened and became gel like, but the Tinuvin 770 did not dissolve
